# Test results published in the supplement of paper PMC5499739.
# In all, about 16,000 sequences were measured (“Z-score”: median about -0.37, highest 2% from about 3.1 on). The list shows a part of the results.
# Tested on: RBM10 RRM1-ZnF-RRM2 (GST-tagged construct)
# Assay: RNAcompete 7-mer binding Z-score; higher = stronger binding preference
# Method in brief: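 GST-tagged RBM10 constructs (20 pmol) and a designed pool of 241 399 RNAs up to 41 nt (1.5 nmol) were allowed to bind for 30 min at 4°C in 1 ml Hepes pH 7.8 buffer with glutathione Sepharose beads. After four 2-min washes at 4°C, bound RNA was identified by microarray hybridisation. Enrichment was scored per heptamer motif as a one-sided Z-score across the probes containing it.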
row,Sequence,RNAcompete 7-mer binding Z-score
1,AGGAACU,-0.00148
2,GGGGUCU,1.2
3,GUCGCGU,-0.0124
4,UUCAGGA,0.21
5,AAGGCGG,2.97
6,CCGUUUU,-1.01
7,AAUCCAA,-0.409
8,ACAGAGG,1.76
9,UUACAUC,-0.628
10,UGGCGCG,1.06
11,UGAGGUU,1.64
12,UGUAACA,-0.00877
13,AGGAGGU,2.71
14,UCGGUAC,-0.144
15,AGAUGCG,0.0495
16,AGCGCAC,-0.406
17,UAGAAAA,0.0641
18,CACUAAA,-0.719
19,AGAUAAU,-0.136
20,UCCUGCG,-0.766
21,GGAUCGG,1.96
22,UCUGUAC,-0.551
23,UGUUCUC,-0.781
24,CCCUACC,-0.836
25,CCACUGU,-0.817

row,Sequence,RNAcompete 7-mer binding Z-score
1,UUUCGCA,-0.894
2,UCGCCCU,-0.806
3,AUGACAU,-0.216
4,GGGGCGG,2.79
5,AAAGUCA,-0.0233
6,GACUCCU,-0.828
7,AGUGCGA,0.989
8,UCACAUA,-0.664
9,GAAACAA,0.388
10,AUAGACG,0.217
11,AUUGAUG,0.294
12,UUGACCA,-0.49
13,CUUCAAG,-0.595
14,GAGAUAC,0.323
15,ACGCUAC,-0.643
16,CUCCGCA,-0.752
17,GCUAAGU,-0.246
18,CUACGAC,-0.777
19,GUCAUAG,-0.0525
20,UAGCGAG,0.694
21,GAGGUAA,2.53
22,AAGCAUC,-0.358
23,UGGCGAA,1.4
24,UGAAACG,-0.0889
25,AGGUCGA,0.607

row,Sequence,RNAcompete 7-mer binding Z-score
1,GCAAAAG,0.614
2,AAUUUGA,-0.482
3,CCAGUAC,-0.482
4,UAGCCGC,-0.592
5,CACGACG,-0.103
6,AAAGGUC,1.46
7,ACUCAGC,-0.664
8,AGGAGAU,1.47
9,AUCGGUG,0.691
10,CCCAUUC,-0.785
11,CAGCAAC,-0.431
12,GAGGUCU,0.0167
13,CCCGAUG,-0.446
14,GAGUCGC,0.184
15,UCAAGAU,-0.402
16,UGAUCUA,-0.715
17,GGUAUAC,0.891
18,UACCCCG,-0.551
19,AGACGUC,-0.785
20,ACGUGCC,-0.621
21,AUAAUAA,-0.42
22,UUUUUAA,-0.621
23,UAAGCGG,0.931
24,UUAAAGA,-0.351
25,UGCGGGU,2.48

row,Sequence,RNAcompete 7-mer binding Z-score
1,ACUCAGA,-0.541
2,UGCGCAA,-0.358
3,CACACAU,-0.646
4,GCGAUUA,-0.271
5,UGGAGAU,1.33
6,CAGCAUU,-0.519
7,UAUGCCU,-0.861
8,CACAAUG,-0.249
9,CUCAACG,-0.643
10,UCCUCAG,-0.752
11,CCGUCGA,-0.584
12,GGCUGAG,0.945
13,GAUGUUA,-0.282
14,ACGAUCG,-0.184
15,CCCGCCC,-0.573
16,GUGUCUG,-0.0634
17,UUAUUCG,-0.708
18,GGCCGCA,-0.311
19,GCAGACC,-0.202
20,GAAGGAG,4.52
21,UGCACGA,-0.227
22,ACAUGAC,-0.551
23,CUUGCGG,-0.235
24,ACCGAGC,-0.49
25,AUGUCCC,-0.668

row,Sequence,RNAcompete 7-mer binding Z-score
1,CGGGGCC,0.629
2,CACUCGG,-0.136
3,AAUACUG,-0.311
4,AUUAUGC,-0.395
5,ACAUUAG,-0.242
6,CUGUCAU,-0.723
7,UUGUGAG,0.388
8,GUCGAGU,0.122
9,GUGACGC,0.392
10,GUGUCCA,-0.362
11,CAUACUG,-0.588
12,CCAGGAC,0.148
13,CCCACCU,-0.755
14,GGCUACU,-0.358
15,UAUUCAA,-0.606
16,CCGACAA,-0.763
17,UUCUAGC,-0.795
18,CAUGACG,-0.315
19,CCAUCAA,-0.643
20,GACGAGG,2.77
21,GGGCUAA,1.19
22,ACCCAGU,-0.639
23,GACGAGA,0.691
24,GGCUGAU,0.184
25,CUCGGGG,1.05

row,Sequence,RNAcompete 7-mer binding Z-score
1,GCCAUUG,-0.551
2,UAUGCGU,-0.296
3,GUCACUA,-0.278
4,AGACCGC,-1.12
5,GAAAUAG,0.818
6,ACCCGCG,-0.431
7,AAAUGAA,-0.151
8,AGUACCG,0.0495
9,GUGACCA,0.337
10,GGUCAAA,0.144
11,CGGAACG,0.8
12,AUCAUCU,-0.97
13,UACCGCA,-0.635
14,CAUGUCA,-0.646
15,GUGCCAC,-0.147
16,AUCUGGU,-0.34
17,ACGUACC,-0.544
18,AGGAAGG,4.46
19,GUACCAA,0.119
20,CUUUAGC,-0.916
21,CGGUGUU,-0.253
22,UGAUGGU,1.26
23,UGCUUUA,-0.766
24,ACCGACC,-0.876
25,GCAUUCC,-0.675

row,Sequence,RNAcompete 7-mer binding Z-score
1,AUCCGUA,-0.686
2,CCUUAGG,-0.256
3,AUGCGCU,-0.537
4,AUAACUU,-0.358
5,GUUUUUC,-0.347
6,GGAUGCG,2.03
7,CGGAAGU,0.716
8,CAACGCC,-0.537
9,UUUAUCC,-0.719
10,ACGUGAG,0.738
11,CUAAGGC,-0.0816
12,CUACACG,-0.613
13,GAACUCC,-0.606
14,GUGGGGC,3.47
15,CUUCUCC,-0.912
16,CGCAUUC,-0.723
17,AAAGGCA,1.85
18,AAUCCAG,-0.329
19,GGGCACA,1.39
20,AGGGCAC,0.935
21,CCGCUCC,-0.694
22,ACCGCGC,-0.417
23,GAUUGAA,0.359
24,AUCUAGU,-0.653
25,UGGAGGA,2.95

row,Sequence,RNAcompete 7-mer binding Z-score
1,CAUCCAU,-0.752
2,UCAAGAA,-0.406
3,CGCUCAC,-0.592
4,UAUACGC,-0.686
5,CCGUCAG,-0.621
6,GAUCAAG,0.341
7,UAUUCGG,-0.26
8,AGGCGAC,0.355
9,GCGCUAU,-0.344
10,GGAUCUG,-0.00877
11,GAAUGGC,1.68
12,GGACUAC,0.224
13,GUGGCGU,1.36
14,CAUAUCC,-0.588
15,CUCGUCC,-0.872
16,AUGAAAU,-0.187
17,GCAAUGA,0.177
18,AUCGAAG,0.308
19,GGACAGU,1.01
20,GAUUCGC,-0.515
21,GCGGAUA,1.83
22,GUGCAGC,0.501
23,AUUCUCC,-0.679
24,GUAGUCA,0.253
25,CCAGAAC,-0.566

row,Sequence,RNAcompete 7-mer binding Z-score
1,GAUUGUG,0.432
2,ACGACUU,-0.686
3,CAGUUUC,-0.77
4,UUUCGGG,0.421
5,ACACUAU,-0.541
6,ACGGCAC,-0.027
7,ACUACUU,-0.828
8,CUCAGAC,-0.643
9,AGCGGUU,0.778
10,AGCAGGA,2.45
11,UGGGGCC,0.76
12,AGACAUC,-0.748
13,UUACCAA,-0.617
14,UGAUAGC,-0.0853
15,GAAGGAC,2.8
16,AUAUAAG,0.119
17,GGUCUAU,-0.162
18,UGAAAUG,0.687
19,CGCCUAU,-0.828
20,GAUGUGC,0.192
21,AACACUG,-0.26
22,GUCUGCU,-0.737
23,AUCCCUU,-0.788
24,GCGUGAC,-0.103
25,CCAUCGA,-0.621

row,Sequence,RNAcompete 7-mer binding Z-score
1,CAUUCAU,-0.755
2,GAGACAG,0.854
3,UAUCAUG,-0.471
4,AGAAAAU,0.0859
5,UGGCUUU,-0.464
6,GUGUGUA,0.851
7,UGUUCUA,-0.836
8,AGGUGUA,1.76
9,GACAGUC,-0.599
10,GUGGACC,0.953
11,AGGGCGC,1.05
12,CUAACCG,-0.748
13,UUAUGAC,-0.632
14,AAGCACU,-0.391
15,AGAAUGU,0.184
16,AGUGUAG,1.29
17,GCGGACG,1.5
18,AUUUUCG,-0.876
19,UACGCGA,-0.216
20,UGCAACC,-0.504
21,AAUGAGG,1.94
22,CCCUAGG,0.217
23,CACUCCA,-0.697
24,UAUAGUU,-0.271
25,AAAUUCU,-0.646

row,Sequence,RNAcompete 7-mer binding Z-score
1,CUCCUAC,-0.832
2,UGCGAGA,0.192
3,UCGCCAA,-0.697
4,GCGAACU,-0.213
5,UUCGGCC,-0.843
6,AACUUCC,-0.825
7,UAUUGAC,-0.613
8,UGUAGCU,-0.34
9,GAGAGCG,1.33
10,CUGCCGU,-0.741
11,UGGCAUU,-0.027
12,UAGGAAC,1.68
13,CGAAACU,-0.624
14,UCCCACC,-0.511
15,UCUCAAG,-0.5
16,UUGGAGU,1.02
17,ACGCAAU,-0.431
18,CUCUUUC,-0.821
19,CUUACGG,-0.326
20,AUCUCAG,-0.497
21,CGGAAAA,0.854
22,UGGUAUG,1.5
23,ACGAUGU,-0.147
24,UGCUAAC,-0.581
25,GGAAAGA,2.23

row,Sequence,RNAcompete 7-mer binding Z-score
1,CGCCUCC,-0.795
2,UUAGACC,-0.781
3,UCUAUAA,-0.573
4,GCGGUGA,1.39
5,AAGUAGC,0.126
6,AUGAGCG,0.942
7,ACUUAAA,-0.715
8,AUUACGU,-0.34
9,GCAGAUC,-0.271
10,AUCGAAA,-0.471
11,GUUCCUC,-0.723
12,AUAAUGC,-0.573
13,CAUUCCG,-0.766
14,UAUCUAC,-0.548
15,AAUUCCU,-0.872
16,AUUUGGU,0.381
17,UGGUGUA,1.24
18,AACCAUC,-0.712
19,UUGUGGG,2.44
20,ACAAUUA,-0.428
21,GCCCUCU,-0.861
22,UUCGCUU,-0.828
23,CCACAUA,-0.737
24,AUAGGUC,0.512
25,CGCUUUG,-0.715

row,Sequence,RNAcompete 7-mer binding Z-score
1,UUUCCAC,-0.573
2,AGGAUUU,0.024
3,CAGUCCG,-0.734
4,GGUGCAG,2.42
5,ACGGAAG,1.68
6,UUACGUU,-0.719
7,AAACACC,-0.457
8,GGUGUAG,2.97
9,ACUGACU,-0.686
10,UUGGGUU,2.05
11,AGUCGGG,1.66
12,ACAGUUA,-0.205
13,ACAGCUC,-0.832
14,AGUCUUU,-0.65
15,UAUCAUC,-0.65
16,CAAUAUA,-0.482
17,GCUGUGU,-0.3
18,GGUGCAC,0.931
19,AGCCCGC,-0.668
20,AUUUGAU,-0.398
21,UACCGGU,-0.173
22,UACGUGA,-0.154
23,AACCCCA,-0.675
24,GCAGCAC,-0.242
25,AAGUUGA,0.749

row,Sequence,RNAcompete 7-mer binding Z-score
1,GGGGAAC,2.58
2,UCAGAUC,-0.471
3,ACUCGAU,-0.595
4,ACGCAGC,-0.53
5,GAAUGGG,4.77
6,GCCCCAG,-0.391
7,GCUCAAC,-0.643
8,UGAUCAU,-0.457
9,GUGCUUA,-0.347
10,CAUCGUA,-0.468
11,AUACGCC,-0.752
12,UAACAUG,-0.0343
13,GGAAUUA,0.862
14,AAUGAAU,-0.111
15,GGUACCU,0.0568
16,AUCUGCC,-0.883
17,UAAGAGC,-0.0525
18,ACUAGCG,-0.103
19,ACGGCUA,-0.453
20,AUCGGCA,0.0313
21,CCGUGAC,-0.311
22,GGCGAGC,1.87
23,AGUCAGU,0.13
24,AAGGGGG,3.91
25,GGGCCUG,0.0167

row,Sequence,RNAcompete 7-mer binding Z-score
1,UGCCGUU,-0.766
2,CAAAACG,0.17
3,GUAGUGG,2.49
4,AAUUCAC,-0.643
5,ACUUACC,-0.814
6,UAAUCCC,-0.785
7,CGGAUUU,-0.34
8,AUCGUAA,-0.377
9,CAUCCAG,-0.49
10,CCGUCCU,-0.872
11,GUUUCGC,-0.442
12,AGUCCAU,-0.646
13,AGUACGA,0.286
14,AGUUCGA,-0.519
15,CAUCGCU,-0.843
16,UUACCAU,-0.628
17,GCAGCAG,0.778
